The record followed here is patent US7951577B2, “Liquid crystals with reduced toxicity and applications thereof” (Wisconsin Alumni Research Foundation, priority 2003, dated 2011).

Series [1] deals with 3T3 fibroblasts. The following applies: liquid crystal layer about 1 mm, 4 to 8 hours.
Series [2] has as its system 3T3 fibroblasts. To be noted: 3T3 fibroblast, 4 hours under liquid crystal. How it is done:
Various nematic liquid crystals were screened to investigate their toxicity with respect to animal cells. Calcein AM (Molecular Probes), an intracellular esterase cleavage substrate that increases fluorescence with cleavage, was used to report cell viability using 3T3 fibroblast and SV-40 transformed human corneal epithelial (HCEC) cells which were exposed to varying concentrations of the liquid crystal. After incubation, the liquid crystal was removed, the cells were rinsed, and Calcein AM was added in PBS. The amount of fluorescence, proportional to the number of viable cells, was determined using an automated fluorescence plate reader (Cytofluor 4000). Ethidium homodimer was also used to enumerate dead cells.
Cells were plated at a concentration of 10,000 cells/well on a 96-well plate and allowed to attach and proliferate overnight. Media was removed, and various liquid crystals and PBS were added (25 μL/well). PBS was used as a control. […] 50 μL of Calcein-AM (0.6 μM) was added to each well, and the plate was incubated for an additional 2 hours to allow for an increase in fluorescence. Fluorescence was measured at 485 nm using 530 nm excitation from a Cytofluor 4000 TC automated plate reader.
To quantify the viability of cells treated with liquid crystals, viability/cytotoxicity assays were conducted. […]

Consider `CCCCCc1ccc(-c2ccc(C#N)cc2)cc1` [5CB, 4-cyano-4′-pentylbiphenyl], for which the “morphology/spreading of plated cells immersed under liquid crystal” value with 3T3 fibroblasts [1] is “bulge up or “round up””. For the same compound, the “toxicity to cells (in words)” value in the series on 3T3 fibroblasts [2] is on record as “toxic”.
